Measured values: PubChem BioAssay AID504333 (National Center for Advancing Translational Sciences (NCATS), 2011)
In all, about 360,000 compounds went through this assay and about 16,000 (4.4%) were called active. The shares of active, inactive and inconclusive entries below differ from those in the screen. Calls come from the whole dose curve; as a rule, active = well fitted inhibition curve with a large enough effect; inconclusive = small, poorly fitted or top-dose-only effect; inactive = no such curve, though single readings can be large or run the other way. Where the call is inconclusive, the potency comes from a doubtful curve fit.

Each compound was assayed against Bromodomain adjacent to zinc finger domain protein 2B (Homo sapiens) (UniProt Q9UIF8) (assay: qHTS Assay for Inhibitors of BAZ2B). Details: AlphaScreen BAZ2B-H3K14Ac peptide displacement; series mostly up to 114 µM.
Summary of the method: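 Inhibition is scored as reduced AlphaScreen emission. The BAZ2B/b-H3(5-23)K14Ac complex (50 nM each) in PBS pH 7.4, 0.01% Tween-20 meets compound (up to 110 uM) for 30 min at RT before bead addition.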
Note: nearly all actives have a fitted effect of over 60% in size.
Potency is the fitted concentration of half-maximal effect; tags give direction and shape of the fitted curve.

Chain of UniProt Q9UIF8 (Q9UIF8 whole entry, looked up, the tested form may be a part): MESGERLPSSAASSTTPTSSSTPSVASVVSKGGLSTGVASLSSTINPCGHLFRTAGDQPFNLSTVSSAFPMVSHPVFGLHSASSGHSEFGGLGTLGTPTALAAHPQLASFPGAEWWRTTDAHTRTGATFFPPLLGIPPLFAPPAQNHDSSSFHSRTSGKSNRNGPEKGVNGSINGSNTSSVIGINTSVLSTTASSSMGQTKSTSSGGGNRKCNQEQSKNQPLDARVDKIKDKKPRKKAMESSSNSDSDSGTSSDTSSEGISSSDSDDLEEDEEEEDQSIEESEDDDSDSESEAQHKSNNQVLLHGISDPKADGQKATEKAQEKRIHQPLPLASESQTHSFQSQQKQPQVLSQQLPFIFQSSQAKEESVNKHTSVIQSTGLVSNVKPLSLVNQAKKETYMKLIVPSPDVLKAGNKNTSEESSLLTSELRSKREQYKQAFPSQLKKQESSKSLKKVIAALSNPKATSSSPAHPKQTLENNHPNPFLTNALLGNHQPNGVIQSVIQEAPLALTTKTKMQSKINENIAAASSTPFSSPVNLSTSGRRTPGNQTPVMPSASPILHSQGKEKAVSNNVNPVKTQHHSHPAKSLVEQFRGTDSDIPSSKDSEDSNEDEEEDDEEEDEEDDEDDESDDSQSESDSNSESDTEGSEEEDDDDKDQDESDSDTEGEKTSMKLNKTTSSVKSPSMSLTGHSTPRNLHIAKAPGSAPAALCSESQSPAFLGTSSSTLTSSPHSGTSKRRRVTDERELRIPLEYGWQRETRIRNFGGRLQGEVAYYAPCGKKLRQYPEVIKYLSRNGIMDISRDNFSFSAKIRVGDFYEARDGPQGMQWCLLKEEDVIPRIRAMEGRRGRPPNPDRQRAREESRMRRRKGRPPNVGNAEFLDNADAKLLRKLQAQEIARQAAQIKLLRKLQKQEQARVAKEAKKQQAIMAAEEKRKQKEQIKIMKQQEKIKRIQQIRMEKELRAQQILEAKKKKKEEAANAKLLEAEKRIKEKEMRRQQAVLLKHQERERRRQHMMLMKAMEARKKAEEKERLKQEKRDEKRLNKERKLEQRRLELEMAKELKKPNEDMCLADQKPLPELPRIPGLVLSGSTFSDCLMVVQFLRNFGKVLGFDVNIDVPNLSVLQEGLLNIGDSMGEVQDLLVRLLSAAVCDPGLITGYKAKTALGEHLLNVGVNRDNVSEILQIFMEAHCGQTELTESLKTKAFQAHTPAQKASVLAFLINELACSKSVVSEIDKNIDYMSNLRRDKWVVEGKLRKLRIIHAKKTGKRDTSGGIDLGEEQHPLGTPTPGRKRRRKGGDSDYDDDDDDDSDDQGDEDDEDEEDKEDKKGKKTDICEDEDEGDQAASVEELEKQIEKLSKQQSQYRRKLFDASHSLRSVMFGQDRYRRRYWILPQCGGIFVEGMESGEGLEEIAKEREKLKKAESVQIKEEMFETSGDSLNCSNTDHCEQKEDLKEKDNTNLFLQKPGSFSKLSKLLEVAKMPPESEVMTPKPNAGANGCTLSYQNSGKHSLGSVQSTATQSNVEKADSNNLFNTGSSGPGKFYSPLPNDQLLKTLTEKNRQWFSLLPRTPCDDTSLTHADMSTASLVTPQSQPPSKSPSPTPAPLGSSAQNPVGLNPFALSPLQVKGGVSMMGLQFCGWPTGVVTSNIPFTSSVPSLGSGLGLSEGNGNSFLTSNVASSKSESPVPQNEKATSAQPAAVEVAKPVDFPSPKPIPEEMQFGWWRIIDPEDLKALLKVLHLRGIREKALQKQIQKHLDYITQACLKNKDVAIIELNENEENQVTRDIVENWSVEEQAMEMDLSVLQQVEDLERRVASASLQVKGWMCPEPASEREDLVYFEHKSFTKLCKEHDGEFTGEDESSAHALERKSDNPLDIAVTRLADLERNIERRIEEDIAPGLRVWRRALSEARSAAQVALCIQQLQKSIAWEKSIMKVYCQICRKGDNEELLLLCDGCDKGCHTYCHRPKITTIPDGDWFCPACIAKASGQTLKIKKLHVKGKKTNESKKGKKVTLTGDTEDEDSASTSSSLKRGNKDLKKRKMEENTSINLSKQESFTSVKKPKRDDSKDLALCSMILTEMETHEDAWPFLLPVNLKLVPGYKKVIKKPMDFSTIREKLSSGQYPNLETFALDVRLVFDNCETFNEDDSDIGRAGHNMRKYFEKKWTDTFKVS

Structure (SMILES) | Potency
CCc1nnc2c(N3CCN(c4cc(Cl)ccc4C)CC3)nc3ccccc3n12 | inconclusive: 100 µM [inhibitor, single point]
CCn1c(COc2ccc3c(c2)OCO3)nnc1SCC(=O)c1ccccc1 | inconclusive: 89.1 µM [inhibitor, single point]
CCCCCCN1C(=O)C(O)=C(C(C)=O)C1c1ccc(Cl)cc1 (centres undefined) | inconclusive: 89.1 µM [inhibitor, single point]
Cc1cc(C(=O)Nc2sc3c(c2C#N)CCC(C(C)(C)C)C3)no1 (centres undefined) | inconclusive: 6.31 µM [inhibitor, single point]
COc1ccccc1N1CCN(/N=C/c2cc(OC)c(O)c(OC)c2)CC1 | inconclusive: 89.1 µM [inhibitor, single point]
COc1cc(/C=C2\SC(=S)N(NS(=O)(=O)c3ccc(C)cc3)C2=O)ccc1O | inconclusive: 39.8 µM [inhibitor, partial curve]
N#C/C(=C\c1ccc(O)c(O)c1)C(=O)Nc1cccc2ncccc12 | inconclusive: 7.94 µM [inhibitor, full curve]
Clc1ccc(Cn2c(/C=C/c3ccco3)nc3ccccc32)cc1 | active: 56.2 µM
CCOC(=O)c1c(C)n(-c2ccccc2)c2ccc(OC(=O)c3cccc(OC)c3OC)cc12 | inconclusive: 2.82 µM [inhibitor, full curve, poor fit]
CCNC(=O)COC(=O)c1cc(-c2ccco2)nc2ccccc12 | active: 50.1 µM
O=[N+]([O-])c1cc(S(=O)(=O)C(F)(F)F)ccc1N1CCN(c2ccccc2)CC1 | active: 8.91 µM
Cc1cccc(NC(=O)c2ccccc2NC(=O)c2ccco2)c1 | inconclusive: 25.1 µM [inhibitor, full curve]
COc1ccc(/C=C/C(=O)Nc2ccc(N3CCOCC3)cc2)cc1 | inactive
C(=N\Nc1ccc2ccccc2n1)/c1ccc2c(c1)OCO2 | active: 50.1 µM
O=C1C=C(c2ccccc2)OC2(CCCC2)O1 | inactive
CC1CCc2sc(C(=O)N/N=C/c3ccc([N+](=O)[O-])cc3)cc2C1 (centres undefined) | inactive
Cn1c(NCc2ccccc2)nc2c1c(=O)n(Cc1ccc(Br)cc1)c(=O)n2C | inconclusive: 39.8 µM [inhibitor, partial curve]
CC(=O)C1=C(O)C(=O)N(CCc2c[nH]c3ccccc23)C1c1ccco1 (centres undefined) | inconclusive: 79.4 µM [inhibitor, single point]
Cc1ccsc1CN1CCc2nc(Nc3ccccc3)ncc2C1 | inconclusive: 79.4 µM [inhibitor, partial curve]
